Data as given in publication PMC4336329 (PLoS ONE, 2015).
Hit rate of the full screen: of about 310,000 compounds, about 2,200 (0.71%) showed an effect of 50% or more. Effects have a minus sign here. The list shows a part of the results.

These molecules were tested against human ether-à-go-go-related gene (hERG) potassium channel (human, UniProt Q12809) (assay: primary screen, population patch clamp on CHO cells stably expressing hERG).
Chain of human ether-à-go-go-related gene (hERG) potassium channel (Q12809 whole entry, looked up): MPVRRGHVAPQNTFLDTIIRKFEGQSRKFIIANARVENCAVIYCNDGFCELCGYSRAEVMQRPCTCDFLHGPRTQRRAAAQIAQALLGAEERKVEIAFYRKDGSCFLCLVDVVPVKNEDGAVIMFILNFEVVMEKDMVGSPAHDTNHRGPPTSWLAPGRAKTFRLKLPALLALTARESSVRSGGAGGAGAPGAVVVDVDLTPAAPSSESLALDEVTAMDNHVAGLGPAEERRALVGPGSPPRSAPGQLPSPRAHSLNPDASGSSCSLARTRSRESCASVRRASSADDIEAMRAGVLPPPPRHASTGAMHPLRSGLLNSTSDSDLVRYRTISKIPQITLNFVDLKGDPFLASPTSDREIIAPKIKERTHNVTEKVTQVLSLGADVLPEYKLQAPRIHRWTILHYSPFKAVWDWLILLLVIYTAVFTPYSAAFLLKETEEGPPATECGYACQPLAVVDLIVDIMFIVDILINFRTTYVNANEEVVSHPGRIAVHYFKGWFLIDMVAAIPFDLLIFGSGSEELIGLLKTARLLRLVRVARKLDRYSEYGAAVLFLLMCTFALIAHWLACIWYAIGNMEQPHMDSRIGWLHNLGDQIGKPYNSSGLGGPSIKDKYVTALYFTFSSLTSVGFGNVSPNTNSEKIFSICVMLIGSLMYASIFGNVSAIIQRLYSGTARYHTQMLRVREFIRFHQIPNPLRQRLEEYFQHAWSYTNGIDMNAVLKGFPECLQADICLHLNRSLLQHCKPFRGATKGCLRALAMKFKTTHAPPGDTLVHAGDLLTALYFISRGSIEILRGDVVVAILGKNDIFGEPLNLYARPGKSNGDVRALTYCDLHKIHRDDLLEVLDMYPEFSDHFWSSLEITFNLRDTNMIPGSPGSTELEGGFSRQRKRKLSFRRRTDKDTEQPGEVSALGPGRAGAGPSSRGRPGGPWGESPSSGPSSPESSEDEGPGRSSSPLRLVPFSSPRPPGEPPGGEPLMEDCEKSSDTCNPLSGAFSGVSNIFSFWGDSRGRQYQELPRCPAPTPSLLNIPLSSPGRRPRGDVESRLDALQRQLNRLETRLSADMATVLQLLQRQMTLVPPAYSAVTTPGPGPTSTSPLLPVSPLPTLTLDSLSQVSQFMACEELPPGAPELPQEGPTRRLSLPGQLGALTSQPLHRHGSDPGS

Compound	hERG current change (%, negative = inhibition) at 1uM [%]
O=C(CSc1ccccc1F)NNC(=O)c1ccncc1	11.9
COc1ccc(C2N(c3ccccn3)C(=O)C3CCCN32)c(OC)c1 (stereo not drawn)	5.94
CC(=O)Nc1cccc(C(=O)OC(C)C(=O)N2CCc3ccccc32)c1 (stereo not drawn)	-13
COc1ccc(C(=O)NC2CCCCCC2)cc1S(=O)(=O)N1CCCc2ccccc21	10.2
CCn1c(SCC(=O)c2cccs2)nnc1-c1cccs1	1.77
CC(=O)c1cccc(NC(=O)CCNS(=O)(=O)c2cccc3nonc23)c1	16.5
Cc1c(Cl)cccc1NC(=O)c1ccc(-n2ccnc2)nc1	2.96
Cc1ccsc1-c1nc(CN2C[C@@H](C)O[C@@H](C)C2)c(C)o1	13.7
COc1cc(C2CC(=O)Oc3c(C(CCN4CCN(c5ccccc5)CC4)c4ccc(N(C)C)cc4)c(OC)cc(OC)c32)cc(OC)c1OC (stereo not drawn)	-0.617
CN(Cc1c(O)ccc2c1oc(=O)c1ccccc12)C1CCCCC1	6.64
CCOC(=O)C1C(=O)C=C(c2ccc(C)cc2)CC1c1ccco1 (stereo not drawn)	11.2
Cc1c(C)n(CCc2ccccc2)c2ncnc(NN)c12	1.71
CC(=O)c1cc(NC(=O)c2cccc(C(F)(F)F)c2)c(=O)oc1/C=C/N(C)C	4.85
COc1cc(C(=O)Nc2ccc(S(=O)(=O)Nc3nccc(C)n3)cc2)cc(OC)c1OC	11.4
CN(C)C(Cc1ccccc1)C(=O)c1ccc(-c2ccccc2)cc1.Cl (stereo not drawn)	16.1
Cc1cc(NS(=O)(=O)c2ccc(NC(=O)CCCOc3ccccc3)cc2)no1	16.4
COc1cc(CN2CC(=O)N(c3ccc(C)c(Cl)c3)C2=S)cc(OC)c1OC	14.8
COc1ccc(C(=O)Nc2ccc(NC(=O)c3cccc(OC)c3)cn2)cc1	18.2
CC1=NN(C(=O)c2ccc(Cl)cc2)C(O)(c2ccccc2)C1 (stereo not drawn)	21.2
NS(=O)(=O)c1ccc(CCNC(=O)c2nc(CS(=O)(=O)c3ccc(Cl)cc3)no2)cc1	-2.39
Cc1cc(Cl)c2oc(C(=O)N(CCO)Cc3ccccc3)c(C)c2c1	15.5
Nc1ncnc(Nc2ccccc2C(F)(F)F)n1	4.96

Compound	hERG current change (%, negative = inhibition) at 1uM [%]
CC(=O)c1ccc(NC(=O)c2cc(=O)[nH]c3ccccc23)cc1	5.01
Cc1cnn(C(=S)NCc2ccc(Cl)cc2)c1	15.3
CCN(CC)C(=O)Cn1cc(C(=O)C(=O)NCc2ccccn2)c2ccccc21	7.46
COc1ccc(OC)c2sc(N3CCCCC3)nc12	12
Cc1ccc(O)c(-c2cc(C(=O)NCc3ccccc3)[nH]n2)c1	-2.35
COc1ccc(C(=O)N(C)Cc2ccccc2)cc1Br	6.31
CC(=O)c1sc(NC(=O)C(C)C)nc1C	6.12
O=C(NN1C(=O)/C(=C/c2ccc(O)c([N+](=O)[O-])c2)SC1=S)c1ccccc1Cl	-2.08
CCOCCCN(C(=O)c1snc(C(N)=O)c1N)C(C(=O)NC1CCCC1)c1ccc(O)cc1 (stereo not drawn)	14.6
O=C(Nc1ccc(Br)cc1Cl)c1cnccn1	7.08
COc1ccccc1C(=O)N1CCN(C(=O)Cc2ccccc2)CC1	10.2
COc1cccc(-c2nn(-c3ccccc3)cc2CN2CCCO2)c1	9.68
N#C/C(=C\Nc1ccccc1SC(F)(F)F)c1nc(-c2ccccc2)cs1	6.83
COC(=O)C1=C2SCC(=O)N2C(N)=C(C#N)C1	11.5
CC(OC(=O)C1CC(=O)N(Cc2ccccc2)C1)C(=O)Nc1cccc(C#N)c1 (stereo not drawn)	6.08
CC(=O)Nc1ccc(Nc2ccc3nonc3c2[N+](=O)[O-])cc1	-0.426
O=C(O)c1nccnc1C(=O)NCc1csc2ccc(Cl)cc12	13
O=C(Cc1ccccc1)Nc1ccc(C(=O)NCc2ccccc2)cc1	18.6
COC(=O)c1ccc(NC(=O)C(=O)N2CCCC2)cc1	2.04
CC(=O)Nc1cccc(C(=O)/C=C/c2ccc(C)cc2)c1	-4.5
Cc1ccc(S(=O)(=O)N2CCCCC2)cc1NC(=O)CSc1nnc(N)s1	-8.31
O=C(COc1cccc(C(F)(F)F)c1)NCCCN1CCCC1=O	-1.13

Compound	hERG current change (%, negative = inhibition) at 1uM [%]
CC(C)CCNC(=O)C(C)N(Cc1ccc(F)cc1)C(=O)c1ccc(CN2CCCCC2)o1 (stereo not drawn)	-12.3
CCn1c(=O)c2cc(C(=O)NCCCOC)sc2c2ccccc21	16.1
CCOC(=O)c1c(N)c(C#N)c2n1CCCCC2	5.83
CC(C)N(Cc1ccccc1)C(=O)COC(=O)C1CCN(S(=O)(=O)c2ccc3c(c2)OCCO3)CC1	10.2
Cc1cccnc1NC(=O)COc1ccc2c(c1)CCC2	4.83
O=C(O)C[C@H]1c2ccccc2S(=O)(=O)N1C1CCCC1	20.4
O=C(NCc1ccccc1)/C(NC(=O)c1ccccc1)=C(/Sc1ccccn1)c1ccccc1	14.2
COc1cccc(-c2csc(N3CCN(CC(=O)NNC(=O)c4ccc(Cl)cc4)CC3)n2)c1	8.21
CC(Sc1nc(-c2ccccc2)cc(C(F)(F)F)n1)C(=O)N1CCCCC1 (stereo not drawn)	-6.22
CC(C(=O)N1CCOCC1)c1ccc([N+](=O)[O-])cc1 (stereo not drawn)	9.61
Cc1ccc(OCC(=O)N2CCN(C3=NS(=O)(=O)c4ccccc43)CC2)cc1	-30.7
CC(C)[C@H](NC(=O)N1c2ccccc2NC(=O)[C@@H]1C(C)C)C(=O)N[C@H](Cc1ccccc1)C(=O)O	6.78
COC(=O)c1c(C)nc(C)c(C(=O)OC)c1-c1ccc(OC)c(OC)c1	12.7
CC(=O)N(CC(C)C(=O)O)c1c(I)cc(I)c(N)c1I (stereo not drawn)	17.5
CCC(C)NC(=O)N[C@@H](CCSC)C(=O)O (stereo partly drawn)	8.95
Cc1cc(C(=O)NCc2ccccc2Cl)c2ccccc2n1	5.92
NC(=O)C[N+]1(CC#CC(O)(c2ccccc2)c2ccccc2)CCCC1.[I-]	13.9
CCCNC(=O)CS(=O)(=O)Cc1nc(-c2cccc(OC)c2)oc1C	-284
CCOc1ccccc1CNC(=O)c1ccc2c(c1)N(CC)CCS2	-2.83
Cc1c(NCc2ccncc2)cccc1C(=O)O	14.3
Cn1c(O)c(N=NC(=N)N)c2ccccc21	25.5
COC(=O)C1=C(c2ccc(OC)c(OC)c2)C[C@@H]2CC[C@H]1N2C(=O)NC1CCCCC1	13.7

Compound	hERG current change (%, negative = inhibition) at 1uM [%]
O=C(O)c1ccccc1CSc1ccccn1	14
O=C1c2cccnc2C(=O)N1Cc1ccc(S(=O)(=O)N2CCN(c3ccc(Cl)cc3)CC2)cc1	12
CC(=O)C1=C(C)OC(N)=C(C#N)C1c1cccc2ccccc12 (stereo not drawn)	4.99
COC(=O)C1=C(C(=O)OC)[C@@H]2Nc3ccccc3[C@@]23C[C@@H](C(=O)OC)N(C(=O)c2ccco2)C3=N1	6.27
COc1ccc(-c2nc(-c3ccccc3)ncc2S(C)(=O)=O)cc1	7.49
C[C@@H]1CN(Cc2nc(-c3cnccn3)no2)C[C@H](C)O1	5.17
O=C(COc1nncc2ccccc12)Nc1c(F)c(F)c(F)c(F)c1F	10.3
Cn1c(=O)c2c(O)c([N+](=O)[O-])c(=O)n(C)c2n(C)c1=O	13.3
Cn1cc(SCC(=O)NCc2ccc(F)cc2)c2ccccc21	6.71
Cc1occc1-c1nnc(SCC(=O)N2CCCC(C)C2)o1 (stereo not drawn)	8.35
CC(=O)N(C(C)=O)c1c(N2CCOCC2)c2ccccc2oc1=O	8.41
CC1CCN(S(=O)(=O)c2cccc(-c3nnc(-c4cccnc4)o3)c2)CC1	-2.27
CCOc1cc(/C=C2\C(=O)N(c3nc(-c4ccc(Br)cc4)cs3)N=C2c2ccccc2)ccc1O	9.46
O=C(NCCNC(=O)c1cc(OCC(F)(F)F)ccc1OCC(F)(F)F)Nc1ccc(Cl)cc1	2.41
CC(O)CC(=O)O (stereo not drawn)	10.3
CC(=O)c1cnc(Nc2nc(C)c3cc(C)c(C)cc3n2)nc1C	13.5
CCOc1ccc(OCC)c(NC(=O)c2nnn(CC(=O)Nc3cc(C)cc(C)c3)c2N)c1	18
COc1ccc(C2CC(c3ccc(OC)cc3OC(C)=O)=NN2C(=O)c2ccccc2)cc1 (stereo not drawn)	2.33
O=C(O)CC12CC3CC(C1)CC(n1ncc(NCc4ccccc4Cl)c(Cl)c1=O)(C3)C2	4.29
NC(=O)c1nn(-c2ccc(Oc3ccccc3)cc2)c(=O)cc1O	14.5
Cc1ccc2c(c1)nnn2C1CCN(C(=O)C23CC4CC(CC(C4)C2)C3)CC1	10.9
